# Assay results as given in publication PMC12820563.
# The other results are listed elsewhere or left out. The list includes weakly bound sequences.
# Molecular target: T1, MBP-FoxP3dN (UniProt Q99JB6)
# T1 sequence: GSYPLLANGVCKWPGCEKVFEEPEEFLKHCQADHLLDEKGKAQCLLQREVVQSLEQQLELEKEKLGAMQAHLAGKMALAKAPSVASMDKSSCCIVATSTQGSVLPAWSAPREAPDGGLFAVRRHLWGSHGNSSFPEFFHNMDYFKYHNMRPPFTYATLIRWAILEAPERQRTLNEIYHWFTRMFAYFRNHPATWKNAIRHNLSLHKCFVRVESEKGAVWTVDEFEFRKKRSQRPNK
# Assay: PD-seq (MBP pull-down with sequencing)
# Details: 20 mM Tris-HCl pH 7.5, 100 mM NaCl, 1.5 mM MgCl2, 0.4 uM protein, 0.1 uM dsDNA library, 30 min, room temperature, amylose pull-down; high values mean tight binding; double strand, one strand shown
row,Sequence,binding signal (RPM ratio (pull-down/input))
1,GATGATTGTTCTCCCAGCTGATGAATTCCCGATTTCGAGTAAACAAATTTTCCTAATCTTTCTGTTCAAGCGCCATCTAC,0.331
2,GATGATTGTTCTCCCAGCTGATGAATTGCATGAATCGAGTAAACAAATTTTCCTAATCTTTCTGTTCAAGCGCCATCTAC,0.753
3,GATGATTGTTCTCCCAGCTGATGAATTAGCGGCTTCGAGTAAACAAATTTTCCTAATCTTTCTGTTCAAGCGCCATCTAC,0.415
4,GATGATTGTTCTCCCAGCTGATGAATTTCCTGTATCGAGTAAACAAATTTTCCTAATCTTTCTGTTCAAGCGCCATCTAC,0.428
5,GATGATTGTTCTCCCAGCTGATGAATTCTCAATCTCGAGTAAACAAATTTTCCTAATCTTTCTGTTCAAGCGCCATCTAC,0.25
6,GATGATTGTTCTCCCAGCTGATGAATTCGAGTTATCGAGTAAACAAATTTTCCTAATCTTTCTGTTCAAGCGCCATCTAC,0.746
7,GATGATTGTTCTCCCAGCTGATGAATTAAAAATTTCGAGTAAACAAATTTTCCTAATCTTTCTGTTCAAGCGCCATCTAC,0.202
8,GATGATTGTTCTCCCAGCTGATGAATTCAGTTCTTCGAGTAAACAAATTTTCCTAATCTTTCTGTTCAAGCGCCATCTAC,0.839
9,GATGATTGTTCTCCCAGCTGATGAATTGGTTCATTCGAGTAAACAAATTTTCCTAATCTTTCTGTTCAAGCGCCATCTAC,0.38
10,GATGATTGTTCTCCCAGCTGATGAATTTGGAAGTTCGAGTAAACAAATTTTCCTAATCTTTCTGTTCAAGCGCCATCTAC,0.344
11,GATGATTGTTCTCCCAGCTGATGAATTGGGGGTTTCGAGTAAACAAATTTTCCTAATCTTTCTGTTCAAGCGCCATCTAC,0.812
12,GATGATTGTTCTCCCAGCTGATGAATTATACAATTCGAGTAAACAAATTTTCCTAATCTTTCTGTTCAAGCGCCATCTAC,0.854
13,GATGATTGTTCTCCCAGCTGATGAATTAGGAAGATCGAGTAAACAAATTTTCCTAATCTTTCTGTTCAAGCGCCATCTAC,0.181
14,GATGATTGTTCTCCCAGCTGATGAATTGAGACTTTCGAGTAAACAAATTTTCCTAATCTTTCTGTTCAAGCGCCATCTAC,1.22
15,GATGATTGTTCTCCCAGCTGATGAATTCAAAAAGTCGAGTAAACAAATTTTCCTAATCTTTCTGTTCAAGCGCCATCTAC,0.151
16,GATGATTGTTCTCCCAGCTGATGAATTTAACGACTCGAGTAAACAAATTTTCCTAATCTTTCTGTTCAAGCGCCATCTAC,0.447
17,GATGATTGTTCTCCCAGCTGATGAATTGGTGTGCTCGAGTAAACAAATTTTCCTAATCTTTCTGTTCAAGCGCCATCTAC,1.34
18,GATGATTGTTCTCCCAGCTGATGAATTTGTATAGTCGAGTAAACAAATTTTCCTAATCTTTCTGTTCAAGCGCCATCTAC,5.26
